Further values from the same series stand in other lists.

We go through two molecules from EPA's CvTdb concentration-time database.

For data set [1], the system named is Rat. As to the kind of experiment: concentration in liver after dosing. Particulars: 120 h; dosed: 3,3',4,4',5-pentachlorobiphenyl; 1000 mg/kg; oral; Female; Harlan Sprague Dawley.
Data set [2] concerns Rat. Description: concentration in liver after dosing. Particulars: 16 h; dosed: 3,3',4,4',5-pentachlorobiphenyl; 1000 mg/kg; oral; Female; F344.
The test system of data set [3] is Rat. Description: concentration in liver after dosing. Particulars: 2 h; dosed: 3,3',4,4',5-pentachlorobiphenyl; 1000 mg/kg; oral; Female; F344.
For data set [4], the system named is Rat. As to the kind of experiment: concentration in liver after dosing. To be noted: 6744 h; dosed: 3,3',4,4',5-pentachlorobiphenyl; 1000 mg/kg; oral; Female; Harlan Sprague Dawley.
The subject of data set [5] is Rat. Description: concentration in liver after dosing. To be noted: 3984 h; dosed: 3,3',4,4',5-pentachlorobiphenyl; 1000 mg/kg; oral; Female; F344.
The test system of data set [6] is Rat. As to the kind of experiment: concentration in liver after dosing. Particulars: 1.5 h; dosed: 3,3',4,4',5-pentachlorobiphenyl; 1000 mg/kg; oral; Female; F344.
The subject of data set [7] is Rat. Description: concentration in brain after dosing. To be noted: 5 min; dosed: alpha/beta-Thujone mixture; 25 mg/kg; oral; Female; F344.
In data set [8] the test system is Rat. Description: concentration in brain after dosing. To be noted: 1.5 h; dosed: 76231-76-0; 3.0 mg/kg; iv; Female; F344.
For data set [9], the system named is Rat. Description: concentration in brain after dosing. Particulars: 3 h; dosed: alpha/beta-Thujone mixture; 25 mg/kg; oral; Male; F344.
For data set [10], the system named is Rat. Description: concentration in brain after dosing. Particulars: 5 min; dosed: alpha/beta-Thujone mixture; 50 mg/kg; oral; Male; F344.
Data set [11] has as its system Rat. Description: concentration in plasma after dosing. Particulars: 1.5 h; dosed: alpha/beta-Thujone mixture; 25 mg/kg; oral; Male; F344.
Data set [12] concerns Rat. Description: concentration in plasma after dosing. Particulars: 10 min; dosed: 76231-76-0; 3.0 mg/kg; iv; Male; F344.
Data set [13] deals with Rat. Description: concentration in plasma after dosing. To be noted: 2 min; dosed: alpha/beta-Thujone mixture; 25 mg/kg; oral; Male; F344.
For data set [14], the system named is Rat. As to the kind of experiment: concentration in plasma after dosing. To be noted: 5 min; dosed: alpha/beta-Thujone mixture; 25 mg/kg; oral; Male; F344.
For data set [15], the system named is Rat. As to the kind of experiment: concentration in plasma after dosing. To be noted: 0.5 h; dosed: alpha/beta-Thujone mixture; 50 mg/kg; oral; Female; F344.
Data set [16] concerns Rat. As to the kind of experiment: concentration in plasma after dosing. Particulars: 5 min; dosed: alpha/beta-Thujone mixture; 50 mg/kg; oral; Female; F344.
The test system of data set [17] is Rat. Description: concentration in plasma after dosing. To be noted: 10 min; dosed: 76231-76-0; 3.0 mg/kg; iv; Male; F344. This is another data set of the same source.

For `Clc1ccc(-c2cc(Cl)c(Cl)c(Cl)c2)cc1Cl` [3,3',4,4',5-pentachlorobiphenyl], the concentration in liver is 9560 pg/g with Rat [1]; 17600 pg/g in the data set on Rat [2]; 3870 pg/g with Rat [3]; 1130 pg/g in the data set with Rat [4]; 1250 pg/g with Rat [5]; 2560 pg/g in the data set on Rat [6].
On to `CC(C)[C@]12CC(=O)[C@H](C)[C@H]1C2` [alpha-Thujone], for which the concentration in brain in the data set on Rat [7] came out at 2500 ng/g; in the data set on Rat [8] it was 52 ng/g; in the data set with Rat [9], 255 ng/g; in the data set on Rat [10], 911 ng/g. The concentration in plasma in the data set on Rat [11] was 125 ng/mL; in the data set on Rat [12], 422 ng/mL; with Rat [13] it was 10.8 ng/mL; in the data set on Rat [14] it was 232 ng/mL; with Rat [15], 640 ng/mL; with Rat [16] it was 179 ng/mL. The molecule further registered a concentration in plasma in the data set with Rat [17] of 277 ng/mL.
